Measurements as given in PubChem BioAssay AID1745853 (National Center for Advancing Translational Sciences (NCATS), 2022).
The other results are listed elsewhere or left out. Shown are side measurements of this screen, not its main read-out; they come without a call.

Key:
Experiment in all cases: Primary Screen for Target Class Profiling of Small Molecule Inhibitors of Methyltransferases
[1] = molecular target: Glycine N-methyltransferase (Homo sapiens) (UniProt Q14749); conditions: purified enzyme, MTase-Glo SAH luminescence; measured here: GNMT inhibition; at 40 µM; stronger effect = lower value
In short: (§1)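 Each enzyme was assayed with SAM and its substrate. SAH formation detected by MTase-Glo luminescence; single-point 40 uM screen[…].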

[2] = molecular target: Guanidinoacetate N-methyltransferase (Homo sapiens) (UniProt Q14353); conditions: purified enzyme, MTase-Glo SAH luminescence; measured here: GAMT inhibition; at 40 µM; stronger effect = lower value
In short: as §1

[3] = molecular target: Histamine N-methyltransferase (Homo sapiens) (UniProt P50135); conditions: purified enzyme, MTase-Glo SAH luminescence; measured here: HNMT inhibition; at 40 µM; stronger effect = lower value
In short: as §1

[4] = molecular target: Nicotinamide N-methyltransferase (Homo sapiens) (UniProt P40261); conditions: purified enzyme, MTase-Glo SAH luminescence; measured here: NNMT inhibition; at 40 µM; stronger effect = lower value
In short: as §1

[5] = molecular target: Phenylethanolamine N-methyltransferase (Homo sapiens) (UniProt P11086); conditions: purified enzyme, MTase-Glo SAH luminescence; measured here: PNMT inhibition; at 40 µM; stronger effect = lower value
In short: as §1
On the % scale 0 is the no-effect control and ±100 the full control effect.

Compound	activity change, negative = inhibition [1] [%]	activity change, negative = inhibition [2] [%]	activity change, negative = inhibition [3] [%]	activity change, negative = inhibition [4] [%]	activity change, negative = inhibition [5] [%]
CCc1cccc(CC)c1NC(=O)c1nn(C)c2c1CCc1cnc(Nc3ccc(C(=O)NC4CCN(C)CC4)cc3OC(F)(F)F)nc1-2	0.141	9.4	1.82	-12.5	-3.64
C#CCN(Cc1cc2c(=O)[nH]c(C)nc2cc1Br)c1ccc(C(=O)NCc2cccnc2)cc1	-11.6	5.3	-4.09	-8.84	-10.2
COCC1CCCN(C(=O)c2cc(Cn3c(C)nc4ccccc43)[nH]n2)C1 (stereo not given)	-7.39	-7.51	-4.63	-15.9	-11.8
COc1cc(OC)cc(-c2onc(C)c2C(=O)NCCC(c2ccccc2)c2ccccc2)c1	-4.32	-8.94	-4.29	-13	-20.6
C=C1CC[C@@H]2[C@](C)(CO)[C@H](O)CC[C@@]2(C)[C@@H]1/C=C/C1=CCOC1=O	2.56	1.65	8.98	-14.5	-6.19
O=C(C1CCc2nnc(-c3cccc(C(F)(F)F)c3)n21)N1CCCCC1 (stereo not given)	0.746	-1.66	0.167	-1.23	1.15
CC(=O)N1CCN(Cc2ccccc2-c2cccnc2)CC1	-2.38	1.35	-0.948	-7.32	9.35
CC1(C(=O)NC2CCCCC2)Cn2nc(-c3cccs3)cc2C(=O)N1CCCc1ccccc1 (stereo not given)	0.837	0	1.46	-9.28	1.38
COc1ccc(N2C(=O)c3cc4ccccc4n3CC2(C)C(=O)NC2CCCCC2)cc1OC (stereo not given)	-4.41	1.3	1.59	-3.27	-2.45
COc1ccc(CNc2nc3c(S(=O)(=O)c4ccc(Cl)cc4)nnn3c3ccccc23)cc1	-4.09	2.84	-4.54	-5.97	-7.29
O=C(C1CCCC1)N1C[C@@H](COc2ccncc2)[C@H](c2ccccn2)C1	-3.8	-0.984	-1.04	-8.24	-0.565
COc1ccc(S(=O)(=O)n2cnc3cc(C)c(C)cc32)cc1	4.09	6.88	12.5	-16.9	5.14
CCCn1c(=O)c2ccc(C(=O)NC3CCCCC3)cc2n2c(=O)n(CC(=O)c3ccc(C)cc3)nc12	3.24	2.71	7.51	0.32	2.28
COc1ccccc1CNC(=O)C1(C)Cn2nc(-c3ccccc3)cc2C(=O)N1Cc1ccc(F)cc1 (stereo not given)	6.87	0	11.4	7.57	3.38
CCOc1ccccc1CN1C(=O)c2cc(C(C)(C)C)nn2CC1(C)C(=O)NC1CCCCC1 (stereo not given)	-9.3	-2.24	-3.28	-11.3	-4.68
CSCCC(NS(=O)(=O)c1ccc2c(c1)oc(=O)n2C)C(=O)NC1CCN(Cc2ccccc2)CC1 (stereo not given)	13.6	0	9.01	-0.609	2.3
CCCc1ccc(-c2nc(C3CCOC3)no2)cc1 (stereo not given)	-3.76	-0.321	-0.434	-4.7	-1.71
CC(C)(C)NS(=O)(=O)c1cncc(-c2cc(F)c3nc(N)nn3c2)c1	-4.55	-1.03	1.94	-11.9	0.435
COc1ccc(NC(=O)N2CCC3(CC2)SCC(=O)N3c2ccc(F)cc2)cc1	-4.85	-0.931	0.014	-2.05	-0.901
CCC(C)NC(=O)c1ccc2c(=O)n(Cc3ccccc3)c3nn(Cc4ccc(C)cc4)c(=O)n3c2c1 (stereo not given)	7.15	0	4.45	5.04	3.65
CCCS(=O)(=O)N1C[C@@H](Oc2cccnc2)C[C@H]1C(N)=O	-3.46	-0.569	-0.896	-5.45	9.29
COc1ccc(NC(=O)N2CCn3cccc3C2C)cc1 (stereo not given)	-7.32	-0.652	-7.15	-12.5	-6.46
COc1cccc(CNC(=O)CCc2nnc3n(CCC(C)C)c(=O)c4ccccc4n23)c1	-7.51	0.227	5.61	-16.6	-0.678
CCOC(=O)c1cc2n(n1)CC(C)(C(=O)NCCC(C)C)N(Cc1cccc(C)c1)C2=O (stereo not given)	-4.54	3.62	-1.77	-5.92	-1.71
Cc1ccc(CNC(=O)C2(C)Cn3nc(C(=O)NCc4cccc(C)c4)cc3C(=O)N2C)cc1 (stereo not given)	-0.566	4.93	0.891	2.56	2.28
c1cc2c(cc1-c1n[nH]c(C3CCOCC3)n1)OCO2	-4.48	-3.71	-1.76	-11.6	-5.46
C=CCOc1cccc(-c2nnc(CCC(=O)NC(C)CC)c(=O)[nH]2)c1 (stereo not given)	-9.34	-3.45	0.092	-1.73	0.325
COc1ccccc1CCN1C(=O)c2cc3ccccc3n2CC1(C)C(=O)NCCC(C)C (stereo not given)	-0.643	1.18	-0.419	-9.46	-2.71
COc1ccc(NC(=O)CCc2nnc3n(Cc4ccccc4)c(=O)c4ccccc4n23)cc1	-11.1	4.51	-3.81	1.81	-4.36
CC1(C(=O)NC2CCCCCC2)Cn2c(cc3sccc32)C(=O)N1Cc1ccccc1F (stereo not given)	0.418	2.34	6.45	1.63	-0.835
